From the BET-seq Pho4 binding data (Le et al. 2018) come the findings set out here.

The list shows a part of the results. The energies were worked out here from pooled read counts, against the library average; single values are noisy.

The target in the assay is T1, Pho4 (S. cerevisiae) (UniProt P07270).
T1 sequence: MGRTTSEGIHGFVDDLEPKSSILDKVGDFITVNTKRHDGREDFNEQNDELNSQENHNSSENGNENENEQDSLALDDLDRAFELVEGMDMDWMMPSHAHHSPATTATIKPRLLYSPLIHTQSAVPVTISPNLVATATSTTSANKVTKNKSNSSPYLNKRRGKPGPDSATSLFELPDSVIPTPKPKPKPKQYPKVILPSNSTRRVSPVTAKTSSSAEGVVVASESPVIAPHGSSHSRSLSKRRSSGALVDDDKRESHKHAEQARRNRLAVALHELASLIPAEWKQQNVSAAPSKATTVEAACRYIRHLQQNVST
Nature of the assay: relative binding free energy (BET-seq); higher = weaker binding. The note with it: reference: library average.
In the case of GGCTGCACGTGATTGG, the “relative binding free energy” value was 0.15 kcal/mol.

Take GCGGTCACGTGGAATG: the “relative binding free energy” value worked out at 0.23 kcal/mol. As for TATCTCACGTGGTTGG, the figure is 0.13 kcal/mol; as for CGTGGCACGTGTCGTT, -0.04 kcal/mol; as for TATATCACGTGGATTA, 0.04 kcal/mol.

GGCTACACGTGTTATG: the “relative binding free energy” value was found to be 0.19 kcal/mol.

For TCTGACACGTGATTAG, the “relative binding free energy” value was 0.26 kcal/mol. With ATTGGCACGTGCGTAA the figure was -0.29 kcal/mol; with GCTTACACGTGGTGTT, 0.09 kcal/mol.

Take TTGGTCACGTGGAAAC: the “relative binding free energy” value is 0.34 kcal/mol. With ATATTCACGTGGAAGG the figure was 0.24 kcal/mol.

With GGAAGCACGTGAAGTT, the “relative binding free energy” value worked out at 0.13 kcal/mol. As for AGCGTCACGTGGAATT, the figure is 0.21 kcal/mol. With GGTCACACGTGAGAGT the figure was 0.29 kcal/mol. With CTGGTCACGTGGGGAA the figure was -0.13 kcal/mol; with TGTGGCACGTGCAGAG, -0.12 kcal/mol. Regarding TGTATCACGTGTTCCT, the “relative binding free energy” value was found to be 0.06 kcal/mol. As for AGGGACACGTGGTGGT, the “relative binding free energy” value is -0.08 kcal/mol.

GTGGACACGTGGGTCT: the “relative binding free energy” value was -0.1 kcal/mol.

With TGGGTCACGTGAGTCG, the “relative binding free energy” value stood at 0.25 kcal/mol. With TGGATCACGTGAACGT the figure was 0.53 kcal/mol. As for GCTTACACGTGATTTT, the “relative binding free energy” value was determined as 0.41 kcal/mol.

On to AGGCACACGTGTGGTA, for which the “relative binding free energy” value is -0.05 kcal/mol. With TGGTCCACGTGTTTGT, the “relative binding free energy” value was found to be 0.04 kcal/mol. As for GTAATCACGTGCGTGA, the figure is 0.17 kcal/mol.

In the case of ACGTGCACGTGATGCG, the “relative binding free energy” value was -0.02 kcal/mol. As for GTGCGCACGTGATGGA, the “relative binding free energy” value is 0.02 kcal/mol. Regarding ATTAGCACGTGTAGTT, the “relative binding free energy” value was -0.04 kcal/mol. Regarding GATGACACGTGAGGGG, the “relative binding free energy” value is 0.39 kcal/mol. With TTTCACACGTGGTATT, the “relative binding free energy” value was -0.13 kcal/mol. As for CTTAGCACGTGGTAAG, the figure is -0.1 kcal/mol; as for TGTATCACGTGTGTCA, 0.09 kcal/mol. As for TTATGCACGTGAGAGG, the figure is 0.22 kcal/mol. As to TAGTCCACGTGTGTAT, the “relative binding free energy” value came out at 0 kcal/mol. With TGGACCACGTGCGGTG, the “relative binding free energy” value is -0.06 kcal/mol.

Turning to CTTGGCACGTGTGTGT, the “relative binding free energy” value is -0.13 kcal/mol. With GGATTCACGTGAGAAG the figure was 0.49 kcal/mol; with ATAGACACGTGCTGTG, 0.02 kcal/mol; with GATGTCACGTGAGAGG, 0.41 kcal/mol.

CTAATCACGTGAGGGG: the “relative binding free energy” value worked out at 0.3 kcal/mol. On to TTGCTCACGTGGGCAT, for which the “relative binding free energy” value is -0.04 kcal/mol. With GGAAGCACGTGCTGGG the figure was -0.16 kcal/mol; with GGGGGCACGTGCAATG, -0.07 kcal/mol. Turning to GTTTGCACGTGGGCCG, the “relative binding free energy” value was -0.08 kcal/mol. As for TGGCGCACGTGAGGGT, the figure is 0.14 kcal/mol; as for ATCGGCACGTGCAGGG, -0.14 kcal/mol. With GGTGTCACGTGCTTGT the figure was -0.04 kcal/mol; with GCGTGCACGTGGGAAG, -0.16 kcal/mol.

As to GGGAGCACGTGCGATG, the “relative binding free energy” value is -0.05 kcal/mol. With TGGTTCACGTGTTATC the figure was 0.27 kcal/mol; with GGTTGCACGTGTGTGA, 0.14 kcal/mol. As for TCTTTCACGTGGAGGT, the “relative binding free energy” value came out at 0.4 kcal/mol. As for TCATACACGTGGGGTG, the figure is -0.2 kcal/mol.

Consider GTTAACACGTGAGGCA, for which the “relative binding free energy” value came out at 0.29 kcal/mol. GCGTGCACGTGAGGTT: the “relative binding free energy” value is 0.31 kcal/mol.

As to TTAAACACGTGAGGCG, the “relative binding free energy” value came out at 0.34 kcal/mol.

Regarding TTCGACACGTGTGAGA, the “relative binding free energy” value came out at 0.32 kcal/mol. Take AGGTACACGTGGCGGC: the “relative binding free energy” value was 0.04 kcal/mol. As for TAGTGCACGTGGTGTC, the figure is -0.24 kcal/mol; as for CTGTACACGTGGTTAT, 0.01 kcal/mol; as for TGAAACACGTGAGGGG, 0.24 kcal/mol. With ACTATCACGTGTTGTA the figure was 0.14 kcal/mol. As for GTTTTCACGTGGCGAT, the figure is 0.28 kcal/mol. As to GGCGTCACGTGATGCG, the “relative binding free energy” value was determined as 0.09 kcal/mol. Take AGGTACACGTGGGGCC: the “relative binding free energy” value is -0.08 kcal/mol.

With TTCCACACGTGTGTGG, the “relative binding free energy” value is 0.08 kcal/mol. As for GGTGTCACGTGGTTCT, the figure is 0.08 kcal/mol; as for TTGGTCACGTGATGAG, 0.26 kcal/mol. With CGGAGCACGTGCTTGG the figure was -0.09 kcal/mol.

On to AGTTGCACGTGGTTCT, for which the “relative binding free energy” value is -0.17 kcal/mol. With TTGAACACGTGGTATG the figure was -0.03 kcal/mol.

Regarding GTAAACACGTGAAGTT, the “relative binding free energy” value came out at 0.49 kcal/mol. With GTGTCCACGTGCGGTT the figure was 0.09 kcal/mol; with TGTGGCACGTGAGGCT, 0.14 kcal/mol; with TTCAGCACGTGTGTTT, 0.02 kcal/mol. With CAGGGCACGTGGTGAA the figure was -0.12 kcal/mol. With GGGGCCACGTGTTCAG the figure was 0.08 kcal/mol; with CGGCTCACGTGGTGAG, 0.09 kcal/mol; with ATTGTCACGTGAGGAT, 0.13 kcal/mol. For TATCTCACGTGATGTT, the “relative binding free energy” value came out at 0.29 kcal/mol. With TATACCACGTGTAGTG the figure was -0.06 kcal/mol. As for TGGGACACGTGCATTG, the figure is -0.01 kcal/mol; as for GCGAACACGTGGTGTG, -0.11 kcal/mol; as for ATAGACACGTGCTAGG, 0.09 kcal/mol.

As to TGGAGCACGTGGTACA, the “relative binding free energy” value was -0.12 kcal/mol. As for TGTATCACGTGGTCGA, the figure is 0.1 kcal/mol; as for CGAGCCACGTGGTGGG, -0.2 kcal/mol. Take ATTAACACGTGGGGTA: the “relative binding free energy” value worked out at 0.02 kcal/mol. Regarding AGATTCACGTGGTGGA, the “relative binding free energy” value was 0.25 kcal/mol. With AGTTGCACGTGGCTAT the figure was -0.12 kcal/mol; with AGTCTCACGTGAATTG, 0.33 kcal/mol. As for ACTGTCACGTGGGTTA, the figure is -0.18 kcal/mol; as for TGGAGCACGTGTGACG, -0.03 kcal/mol; as for TTTCACACGTGTGAGT, 0.17 kcal/mol. Take TAGGGCACGTGACTTT: the “relative binding free energy” value was -0.06 kcal/mol. With ATTTTCACGTGGGGTC the figure was 0.18 kcal/mol. For the sequence GTTGACACGTGTTGAA, the “relative binding free energy” value was 0.15 kcal/mol. On to GAATGCACGTGTGAAG, for which the “relative binding free energy” value is 0.33 kcal/mol. As for CTTGGCACGTGTATTG, the figure is -0.16 kcal/mol; as for GGTTTCACGTGCTGTC, 0.32 kcal/mol. With GTGGACACGTGGTAGC the figure was 0.01 kcal/mol. As for CTAGGCACGTGTGGGC, the figure is -0.04 kcal/mol.

Regarding CATGGCACGTGGGGCG, the “relative binding free energy” value is -0.19 kcal/mol. With GGGCTCACGTGGGAAT the figure was 0.34 kcal/mol; with AGCGTCACGTGAGGTT, 0.11 kcal/mol; with TAACGCACGTGGTCTT, 0.11 kcal/mol. As for GATTGCACGTGTTCAT, the figure is 0.08 kcal/mol; as for GGCGTCACGTGGGGCA, 0.06 kcal/mol. As for TTGTTCACGTGCTGTA, the figure is 0.17 kcal/mol. As for GTTGACACGTGTTGGA, the “relative binding free energy” value turned out to be 0.13 kcal/mol. With TTGAGCACGTGAGAAG the figure was 0.06 kcal/mol.

As for GGTTGCACGTGAGTCG, the “relative binding free energy” value turned out to be 0.33 kcal/mol. With AGTGGCACGTGAGGCC the figure was 0.01 kcal/mol; with TATGTCACGTGATCAT, 0.11 kcal/mol; with TGCGGCACGTGGGCAT, -0.22 kcal/mol.
